PubChem BioAssay (NCI)
Where “and” joins values, the source holds several entries; their conditions need not be identical. Identical values can stand only once.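 Compound exposure: 48 hours, 5 concentrations, 96-well plates. GI50 marks 50% less growth. TGI is the concentration that stops growth completely.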 Square brackets hold non-standard residues; d marks the D form. Peptide text beside a SMILES is read from it. * marks the point of attachment. Phe(4-NO2) = N[CH](Cc1ccc([N+](=O)[O-])cc1)C(=O)O; Boc = CC(C)(C)OC(=O)*; OtBu = CC(C)(C)O*

System: NCI-H322M lung
Experiment: growth of human tumour cells (NCI), 48 h

`O=C1CC2Sc3ccccc3N=C2N1c1ccc(Cl)cc1Cl` (stereo not drawn) and `O=[N+]([O-])c1cccc(-c2ncc(-c3ccc(Cl)cc3Cl)[nH]2)c1` cannot be ordered by TGI: over 100 µM for the first, over 54.9 µM for the second.

`Fc1nc(F)nc(-c2c3ccccc3c3n2CCS3)n1` and `CSc1s[s+]c(SC)c1-c1ccccc1` cannot be ordered by TGI: over 100 µM for the first, over 100 µM for the second.

`CCOc1ccc(NC(=S)/N=C/C(C(=O)Nc2ccccc2C)=C(\C)O)cc1` and `Cc1[nH]c(=O)nc(N/N=C/c2ccc(O)cc2)c1C(=O)Nc1ccc(Cl)cc1` cannot be ordered by TGI: over 100 µM for the first, over 100 µM for the second.

`CSC1(SC)CCCCCCCCCCC1` and `CCN1CC2(C)CC[C@@H](OC)C34[C@@H]2[C@H](OC(C)=O)C2(OCO[C@@]25C[C@H](OC)C2C[C@]3(O)[C@@H]5[C@H]2O)[C@H]14` cannot be ordered by TGI: over 100 µM for the first, over 100 µM for the second.

`CC(C)C[C@H](NC(=O)[C@@H](O)[C@H](N)Cc1ccccc1)C(=O)O` and `CNC(=O)OCC1=C(COC(=O)NC)CN(c2ccccc2)C1` cannot be ordered by TGI: over 100 µM for the first, over 100 µM for the second.

First: C/C(=N/Nc1ccc([N+](=O)[O-])cc1[N+](=O)[O-])C(CC(C(=O)Nc1ccccc1C)/C(C)=N\Nc1ccc([N+](=O)[O-])cc1[N+](=O)[O-])C(=O)Nc1ccccc1C (stereo not drawn)
Second: Cc1cccc(N2C(=O)/C(=C/c3ccc(N(CCC#N)CCC#N)cc3C)N=C2c2cc([N+](=O)[O-])ccc2Cl)c1
The TGI of the first is lower: 30 µM for the first, over 100 µM for the second.

`C[C@H](NC(=O)CCC(F)(F)F)C(=O)N[C@@H]1C(=O)N(CCO)c2ncccc2-c2ccccc21` and `Cc1cc2c(cc1Cl)SC1=NN(C)C(c3ccccc3O)N1S2(=O)=O` (stereo not drawn) cannot be ordered by TGI: over 100 µM for the first, over 100 µM for the second.

Compared with `CCSc1nc(N)c2cnn(C)c2n1`, `CC(C)n1nc(C#Cc2cccc(NC(=O)c3cccc(C(F)(F)F)c3)c2)c2c(N)ncnc21` is lower in TGI: over 100 µM for the first, 7.27 µM for the second.

Compared with `CC(=O)Nc1ccc(-n2cnc3cc(-c4ccc(OCCN5CCCCC5)cc4)ccc32)cc1`, `CCNC(=O)Oc1ccc(/C(=C(\C)c2ccc(Cl)cc2)c2ccc(OCCN3CCCCC3)cc2)cc1` is lower in TGI: over 33.3 µM for the first, 21.1 µM for the second.

`COc1cc(C(=O)N/N=C/c2cccc([N+](=O)[O-])c2)cc(OC)c1OC` and `COc1cc2c(c(OC)c1OC)-c1ccc(SC)c(=O)cc1[C@@H](NC(=O)c1ccc(C#N)cc1)CC2` cannot be ordered by TGI: over 100 µM for the first, over 100 µM for the second.

First: CCCCCCCCCCCCCCCCCC1=NC(C)(C)CN1CCO
Second: CCCCCCCCCCCCNC(=O)[C@H]1CSC(c2ccc(OC)c(F)c2)N1 (stereo partly drawn)
The TGI of the first is 3.3-fold higher: 10.5 µM for the first, 3.2 µM for the second.

`CC(C)CC1c2[nH]c3ccccc3c2C[C@H]2C(=O)NC(COC(C)(C)C)C(=O)N12` (stereo partly drawn) and `COC(=O)C(Cc1ccc([N+](=O)[O-])cc1)NC(=O)C(CC(=O)OC(C)(C)C)NC(=O)OC(C)(C)C` (stereo not drawn) (Boc-Asp(OtBu)-[Phe(4-NO2)]-OMe; configuration not given here) cannot be ordered by TGI: over 100 µM for the first, over 100 µM for the second.

First: Cc1ns/c(=N\C(=S)N(C)C)n1C
Second: CN1C(=O)C23CC4=CC=CC(O)C4N2C(=O)C1(CO)SS3 (stereo not drawn)
The TGI of the first is higher: over 100 µM for the first, 0.424 µM for the second.

First: N#Cc1ccc(N2Cc3cc(Cl)ccc3OC3=C2C(=O)N(Cc2ccccc2)C3=O)cc1
Second: c1ccc(C/C(=N\Nc2nc3ccccc3o2)c2ccccn2)cc1
The TGI of the first is 21-fold higher: 20 µM for the first, 0.945 µM for the second.

Going from `C/C(=N\NC(=S)N1CCC(C2CCN(C(=S)N/N=C(\C)c3ccccn3)CC2)CC1)c1ccccn1` to `O=C(CCN1CCCCC1CO)Nc1ccc2c(c1)C(=O)c1ccc(NC(=O)CCN3CCCCC3CO)cc1C2=O` (stereo not drawn), the TGI falls from over 100 µM to 42.2 µM.

Going from `Cc1ccc(S(=O)(=O)NC(=O)NS(=O)(=O)O)cc1` to `COC(=O)C1=C(O)C(C(=O)OC)[C@@]2(O)[C@@H](C(=O)OC)C(c3ccc(OC(=O)C(CC(C)C)NC(C)=O)cc3)C[C@@H]1[C@@H]2C(=O)OC` (stereo partly drawn), the TGI falls from over 100 µM to 96.2 µM.

Compared with `C[C@@H](C[C@@H](O)[C@H](O)C(C)(C)O)[C@H]1CC=C2[C@]3(C)[C@H](O)C[C@H]4C(C)(C)[C@H](O)CC[C@]4(C)[C@H]3CC[C@@]21C`, `OCc1ccccc1OC1OC(CO)C(O)C(O)C1O` (stereo not drawn) is higher in TGI: 28.1 µM for the first, over 100 µM for the second.

`COC(=O)CNC(=O)/C=C/[C@H](O[Si](C)(C)C(C)(C)C)[C@H](/C=C/C(=O)NCC(=O)OC)O[Si](C)(C)C(C)(C)C` and `COC1(OC)/C(=C(\N)C=O)NC(C)(C)N1O` cannot be ordered by TGI: over 25 µM for the first, over 100 µM for the second.

`COC(=O)Nc1nc2ccc(Sc3ccc(NC(=O)Nc4cc(C(F)(F)F)ccc4F)cc3)cc2[nH]1` and `CCCCCCN1C(=O)CN=C1Nc1ccc2cc3ccc(NC4=NCC(=O)N4CCCCCC)cc3nc2c1` are within 1.5-fold of each other in TGI: 17.2 µM for the first, 17.9 µM for the second.

First: COc1cc2c(cc1OC)[C@H]1C(=O)c3cc4c(cc3[C@H]1N(C)C2=O)OCO4
Second: O=C1O/C(=C\c2ccc(O)cc2)C(c2ccc(O)c(Cl)c2)=C1Br
The TGI of the first is higher: over 100 µM for the first, 35.8 µM for the second.

`OCCCCC#Cc1ccccc1C#Cc1cnccn1` and `O=C(CN=Cc1cccs1)CSC(c1ccccc1)c1ccccc1` cannot be ordered by TGI: over 100 µM for the first, over 100 µM for the second.

`N#CC1(C#N)C2C=CC(C3CCC=C32)C1(C#N)C#N` (stereo not drawn) and `CCOc1cc(C=O)ccc1O` cannot be ordered by TGI: over 10 µM for the first, over 100 µM for the second.

In the case of `COc1cc(OC)cc(N2CCN(C(=O)Nc3nc4cc(F)ccc4nc3OC)CC2)c1`, the GI50 is reported as 0.0665 µM and 0.0726 µM and 0.0746 µM.

For `COc1cc(OC)cc(N2CCN(C(=O)Nc3nc4cc(F)ccc4nc3OC)CC2)c1`, the TGI was > 100 µM and 92.5 µM.

`CC(C)C[C@H](NC(=O)[C@@H](O)[C@H](N)Cc1ccccc1)C(=O)O` and `C[C@H](NC(=O)CCC(F)(F)F)C(=O)N[C@@H]1C(=O)N(CCO)c2ncccc2-c2ccccc21` cannot be ordered by GI50: over 100 µM for the first, over 100 µM for the second.

First: CCSc1nc(N)c2cnn(C)c2n1
Second: CC(C)n1nc(C#Cc2cccc(NC(=O)c3cccc(C(F)(F)F)c3)c2)c2c(N)ncnc21
The GI50 of the first is 13-fold higher: 30.5 µM for the first, 2.43 µM for the second.

`CC(=O)Nc1ccc(-n2cnc3cc(-c4ccc(OCCN5CCCCC5)cc4)ccc32)cc1` and `CCNC(=O)Oc1ccc(/C(=C(\C)c2ccc(Cl)cc2)c2ccc(OCCN3CCCCC3)cc2)cc1` are within 1.5-fold of each other in GI50: 7.95 µM for the first, 8.51 µM for the second.

`COc1cc(C(=O)N/N=C/c2cccc([N+](=O)[O-])c2)cc(OC)c1OC` and `O=[N+]([O-])c1cccc(-c2ncc(-c3ccc(Cl)cc3Cl)[nH]2)c1` are within 1.5-fold of each other in GI50: 6.33 µM for the first, 9.42 µM for the second.

Going from `CCCCCCCCCCCCCCCCCC1=NC(C)(C)CN1CCO` to `CCCCCCCCCCCCNC(=O)[C@H]1CSC(c2ccc(OC)c(F)c2)N1` (stereo partly drawn), the GI50 falls from 2.8 µM to 1.79 µM (1.6-fold).

Going from `N#Cc1ccc(N2Cc3cc(Cl)ccc3OC3=C2C(=O)N(Cc2ccccc2)C3=O)cc1` to `O=C(CN=Cc1cccs1)CSC(c1ccccc1)c1ccccc1`, the GI50 rises from 7.21 µM to 33.6 µM (4.7-fold).

`COC(=O)Nc1nc2ccc(Sc3ccc(NC(=O)Nc4cc(C(F)(F)F)ccc4F)cc3)cc2[nH]1` and `CCCCCCN1C(=O)CN=C1Nc1ccc2cc3ccc(NC4=NCC(=O)N4CCCCCC)cc3nc2c1` are within 1.5-fold of each other in GI50: 5.55 µM for the first, 3.87 µM for the second.

`Cc1cc2c(cc1Cl)SC1=NN(C)C(c3ccccc3O)N1S2(=O)=O` (stereo not drawn) and `OCCCCC#Cc1ccccc1C#Cc1cnccn1` are within 1.5-fold of each other in GI50: 62.8 µM for the first, 48.8 µM for the second.

`COC(=O)C1=C(O)C(C(=O)OC)[C@@]2(O)[C@@H](C(=O)OC)C(c3ccc(OC(=O)C(CC(C)C)NC(C)=O)cc3)C[C@@H]1[C@@H]2C(=O)OC` (stereo partly drawn) was tested, and the GI50 was 27.8 µM.
